# Data from publication PMC6919601, “Identification of Plasmodium dipeptidyl aminopeptidase allosteric inhibitors by high throughput screening” (PLoS ONE, 2019).
# About 230 (0.21%) of roughly 110,000 compounds showed an effect of 50% or more. The list shows a part of the results.
# Biological target: DPAP1 (Plasmodium falciparum, UniProt Q8IIJ9)
# Assay: primary screen, percent inhibition; read by cleavage of a fluorogenic dipeptide substrate; higher = more effect of the substance
# Parameters: species or system P. falciparum D10 trophozoite lysates; single well
# 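Further: 30 min substrate incubation versus DMSO and 10 µM JCP410 controls.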
# Sequence of DPAP1 (Q8IIJ9 whole entry, looked up): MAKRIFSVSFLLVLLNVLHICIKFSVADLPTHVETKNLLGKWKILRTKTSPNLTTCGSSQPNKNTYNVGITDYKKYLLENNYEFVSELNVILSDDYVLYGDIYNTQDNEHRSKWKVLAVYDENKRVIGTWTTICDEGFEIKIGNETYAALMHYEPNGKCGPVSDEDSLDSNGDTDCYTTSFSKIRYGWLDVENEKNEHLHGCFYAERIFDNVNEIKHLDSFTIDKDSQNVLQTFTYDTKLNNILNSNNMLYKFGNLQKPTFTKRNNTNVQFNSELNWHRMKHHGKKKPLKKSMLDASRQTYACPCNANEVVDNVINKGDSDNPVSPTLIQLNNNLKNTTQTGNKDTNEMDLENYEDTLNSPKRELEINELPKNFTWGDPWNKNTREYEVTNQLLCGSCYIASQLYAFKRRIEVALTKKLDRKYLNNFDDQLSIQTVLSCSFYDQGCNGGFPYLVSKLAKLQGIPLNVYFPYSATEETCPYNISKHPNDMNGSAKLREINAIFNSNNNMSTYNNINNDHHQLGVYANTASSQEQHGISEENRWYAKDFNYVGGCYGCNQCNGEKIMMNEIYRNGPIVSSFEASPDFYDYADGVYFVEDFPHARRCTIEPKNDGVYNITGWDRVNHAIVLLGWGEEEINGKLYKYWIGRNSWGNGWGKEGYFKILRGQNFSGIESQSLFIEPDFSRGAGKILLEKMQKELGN
row,SMILES,% Inhibition @ 10 uM [%]
1,CCOc1ccc(N2C(=O)C3C(c4ccc(F)cc4)OC4(C(=O)c5ccccc5C4=O)C3C2=O)cc1 (stereo not shown),-4.6
2,O=C(NCCSCc1ccccc1)c1cc(S(=O)(=O)N2CCOCC2)ccc1F,-0.256
3,COc1ccc(-c2c(C(C)=O)c(C)nc3sc4c(Cl)nc(C)nc4c23)cc1,1.27
4,c1sc2c(c1CN1CCC3(CC1)OCCO3)CCCC2,2.03
5,COc1ccc(/N=c2/sc3ccccc3n2C)cc1,1.59
6,NC(=O)c1c(NC(=O)c2ccco2)sc2c1CCCCCC2,5.69
7,Cc1nc2c(c(C)nn2C)c(C)c1CCC(=O)NCc1cccnc1,-6.09
8,CC1CCc2c(sc(NC(=O)c3cc4n(n3)C(C(F)(F)F)CC(c3ccco3)N4)c2C(N)=O)C1 (stereo not shown),0.0289
9,Cn1c2c(c(=O)n(C)c1=O)C(c1cccc(O)c1)C(C#N)=C(N)O2 (stereo not shown),-0.128
10,O=c1oc2ccc(Br)cc2cc1-c1nc(-c2cccnc2)no1,5.05
11,NC(=O)c1nn2c(C(F)(F)F)cc(-c3cccs3)nc2c1Cl,-1.66
12,COc1cc2c3c(c1OC)C1(C=CC(=O)C=C1)CC3N(C)CC2 (stereo not shown),5.3
13,CCOc1ccc(C(=O)C2=C(O)C(=O)N(CCOC)C2c2ccccc2)cc1Cl (stereo not shown),-1.89
14,COc1cccc(N2C(=O)CC(N3CCN(Cc4ccc5c(c4)OCO5)CC3)C2=O)c1 (stereo not shown),-0.992
15,COc1cc(C=C2C(=O)NC(=O)NC2=O)cc(Cl)c1OCCOc1ccccc1,-0.467
16,O=C(NCC1CCCO1)c1ccc(-c2ccccc2)cc1 (stereo not shown),-5.16
17,Cc1ccc(N2CCN(C3CCSC3)CC2)cc1 (stereo not shown),-1.75
18,CCOc1ccc(N(CC(=O)NCc2ccccc2C)S(C)(=O)=O)cc1,-1.43
19,COc1ccc(C)cc1NCc1ccc(C(F)(F)F)cc1,-6.08
20,CCOC(=O)N1CCN(C(=O)c2sc3nc(C)nc(N4CCCCC4)c3c2C)CC1,-3.93
21,COc1ccc(CN2CCN(Cc3ccccc3F)CC2)cc1OC,-9.4
22,CCC(C)NC(=O)CSc1nc2c(sc3ccccc32)c(=O)n1CCCN1CCOCC1 (stereo not shown),4.65
23,CC1=CN2C(=N)/C(=C/c3ccc(SC4CCCCC4)o3)C(=O)N=C2S1,-1.28
24,CSc1nc(-c2ccccc2)nn1S(=O)(=O)c1ccc(Cl)cc1,0.722
25,COc1ccc(CN2CC(C(=O)N3CCn4c(nc5ccccc54)C3)CC2=O)cc1 (stereo not shown),0.446

row,SMILES,% Inhibition @ 10 uM [%]
1,CCC(C#N)NC(=O)[C@H](CC(C)C)NC(=O)OCc1ccccc1 (stereo partly shown),-1.41
2,CCCSc1nnc(NC(=O)Cc2coc3c(C)c(C)ccc23)s1,4.18
3,Cc1ccc(OCC(=O)Nc2ccc(S(=O)(=O)N3CCc4ccccc43)cc2)cc1,2.48
4,CCOC(=O)C1CCN(Cc2ccccc2C(F)(F)F)CC1,1.55
5,CC(C)CC(C(=O)NC1(C#N)CC1)c1cccc(-c2cccc(-c3csc(N4CCNCC4)n3)c2)c1 (stereo not shown),-6.46
6,COC(=O)C1=C(C)OC(N)=C(C#N)C1c1cc(Cn2cnc3ccccc32)c(C)s1 (stereo not shown),-1.85
7,O=C1/C(=C\c2ccc(O)cc2)CC/C1=C\c1ccc(O)cc1,0.937
8,CCOc1ccccc1C(=O)NCC(C)C,3.04
9,CC(C)C[C@H](NC1=NS(=O)(=O)c2ccccc21)C(=O)NCC#N,-3.48
10,O=c1c2nc3ccccc3n2c(=O)n2c1nc1ccccc12,-6.09
11,COCCNC(=O)c1cc2nc(-c3ccccc3)cc(C)n2n1,-4.27
12,CCOC(=O)c1c(C)c(-c2ccccc2)n(CC(=O)N2CCN(c3ncccn3)CC2)c1C,6.2
13,CCC(Oc1ccccc1)C(=O)Nc1ccc(F)cc1F (stereo not shown),2.78
14,COc1cc(C(=O)NC2(C(F)(F)F)C(=O)NC(C)=C2C#N)cc(OC)c1OC (stereo not shown),-1.52
15,O=C(CN1CCCCC1)N1c2ccccc2Sc2ccc(Cl)cc21,-3.77
16,Cc1cc(C(=O)N2CCn3c2nc2ccccc23)[nH]n1,0.713
17,COc1ccc(N(C(C)C(=O)Nc2cc(OC)ccc2OC)S(C)(=O)=O)cc1 (stereo not shown),-15.1
18,COc1cccc(C2NC(C(=O)O)Cc3c2[nH]c2ccccc32)c1O (stereo not shown),3.31
19,O=C1OC(c2ccccc2F)=N/C1=C/c1cccc2ccccc12,-0.0894
20,CC1(C)Cc2occc2C(NC(=O)CCC(=O)O)C1 (stereo not shown),-1.55
21,O=C(Nc1ccccc1)N1CCCC1,-4.94
22,Cc1cc(C)cc(Oc2nc3c(C)cccn3c(=O)c2/C=C(\C#N)C(=O)N2CCOCC2)c1,0.315
23,COc1cccc(OCCCCN2CCCCC2)c1,-1.05
24,Clc1ccc(OCCCN2CCCCC2)c2ccccc12,-0.833
